# Source: the BET-seq Pho4 binding data (Le et al. 2018)
# The other results are listed elsewhere or left out. These are noisy estimates, calculated here from bound and input reads.
# Molecular target: T1, Pho4 (S. cerevisiae) (UniProt P07270)
# T1 sequence: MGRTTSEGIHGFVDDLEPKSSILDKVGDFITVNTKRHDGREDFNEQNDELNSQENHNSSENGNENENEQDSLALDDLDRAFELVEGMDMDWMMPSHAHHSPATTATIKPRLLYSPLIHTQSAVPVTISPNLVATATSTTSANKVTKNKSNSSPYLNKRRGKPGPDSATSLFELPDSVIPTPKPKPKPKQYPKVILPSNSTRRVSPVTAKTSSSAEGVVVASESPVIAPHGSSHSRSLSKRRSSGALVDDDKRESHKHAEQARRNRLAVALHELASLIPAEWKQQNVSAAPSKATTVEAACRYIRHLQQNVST
# Assay: relative binding free energy (BET-seq); higher = weaker binding
# Conditions: reference: library average
row,Sequence,relative binding free energy
1,GTGGGCACGTGCTGTT,-0.05 kcal/mol
2,TCTTGCACGTGGGCGG,-0.11 kcal/mol
3,GGCAACACGTGTTTTG,0.01 kcal/mol
4,AGTTGCACGTGGCTTA,-0.12 kcal/mol
5,TAAGTCACGTGTGGGG,0.08 kcal/mol
6,AGGCGCACGTGACGTG,0 kcal/mol
7,AAGGACACGTGAGGTG,0.26 kcal/mol
8,CATGGCACGTGGAGAG,-0.06 kcal/mol
9,TTGAACACGTGATTTT,0.21 kcal/mol
10,TATCACACGTGTGTGA,0.16 kcal/mol
11,TAGGTCACGTGACGGG,0.19 kcal/mol
12,CAACGCACGTGTGGTG,-0.02 kcal/mol
13,GGAGCCACGTGAGGGT,0.05 kcal/mol
14,ATTCACACGTGGTTGT,-0.06 kcal/mol
15,TTTAGCACGTGTTGTC,-0.28 kcal/mol
16,GCTGACACGTGAGGTT,0.31 kcal/mol
17,CTAGTCACGTGAAGTG,0.27 kcal/mol
18,GTGCACACGTGGGGTG,-0.15 kcal/mol
19,CGAGTCACGTGTGTTT,0.15 kcal/mol
20,CAGTGCACGTGGGCTT,-0.1 kcal/mol
21,TTTTTCACGTGAGCGC,0.44 kcal/mol
22,ATTGTCACGTGTAAAC,0.24 kcal/mol
23,TGTGGCACGTGCACGG,-0.18 kcal/mol

row,Sequence,relative binding free energy
1,TAATGCACGTGATGTA,-0.05 kcal/mol
2,TGAGACACGTGTGTCT,0.06 kcal/mol
3,TGCATCACGTGGGTGC,0.06 kcal/mol
4,GTGGCCACGTGGGATT,-0.04 kcal/mol
5,AAGGCCACGTGATTTG,0.27 kcal/mol
6,CGTGACACGTGGGCGA,-0.08 kcal/mol
7,CTGGACACGTGTGTGT,0.09 kcal/mol
8,TTGGGCACGTGGGACC,-0.13 kcal/mol
9,TCATTCACGTGGAGAT,0.29 kcal/mol
10,GAATGCACGTGCGTGG,-0.03 kcal/mol
11,CGGTTCACGTGATTGT,0.32 kcal/mol
12,GGGGTCACGTGGAGTG,0.04 kcal/mol
13,TTGTACACGTGCTGTT,0.01 kcal/mol
14,AGTAGCACGTGATTAG,0.13 kcal/mol
15,ACGTGCACGTGCGTTG,-0.06 kcal/mol
16,TTATACACGTGTTTGT,0.05 kcal/mol
17,GCTTGCACGTGTTTTA,0.08 kcal/mol
18,TGGATCACGTGCTGTT,0.05 kcal/mol
19,GGAGCCACGTGGTAGG,-0.18 kcal/mol
20,TATGGCACGTGTCGTT,-0.18 kcal/mol
21,TAGCACACGTGGGGGT,-0.12 kcal/mol
22,CGTTTCACGTGACGTT,0.4 kcal/mol
23,CTGATCACGTGTTAGT,0.12 kcal/mol

row,Sequence,relative binding free energy
1,GTTGGCACGTGTCGGC,0.03 kcal/mol
2,CGAATCACGTGTGGGT,0.15 kcal/mol
3,AGGTGCACGTGCTATT,-0.14 kcal/mol
4,TGATGCACGTGAGAGA,0.21 kcal/mol
5,CTTGTCACGTGTCTGT,-0.1 kcal/mol
6,GTTATCACGTGGTGTA,0.08 kcal/mol
7,TGGGGCACGTGCGTAG,-0.18 kcal/mol
8,CGAGGCACGTGGAGAT,-0.04 kcal/mol
9,GGATGCACGTGCAGGG,-0.1 kcal/mol
10,GAATTCACGTGTTTGA,0.3 kcal/mol
11,ACAGGCACGTGTGCGG,-0.22 kcal/mol
12,TAGGGCACGTGTGTCC,-0.04 kcal/mol
13,TTTATCACGTGCGAGT,0.09 kcal/mol
14,TAGATCACGTGATAGT,0.28 kcal/mol
15,GGTGCCACGTGGAGGT,-0.07 kcal/mol
16,CGTTTCACGTGTTACT,0.19 kcal/mol
17,ACATGCACGTGGTTTG,-0.12 kcal/mol
18,TTAGGCACGTGTGACA,-0.04 kcal/mol
19,GTTAACACGTGATTGG,0.09 kcal/mol
20,AAGCGCACGTGGAGGT,-0.02 kcal/mol
21,GGAGGCACGTGATAGT,0.04 kcal/mol
22,GGATGCACGTGGGCAT,-0.05 kcal/mol
23,TAATTCACGTGAAAGT,0.36 kcal/mol

row,Sequence,relative binding free energy
1,TGGGCCACGTGTTCGT,-0.12 kcal/mol
2,TGGATCACGTGGGTGG,0.08 kcal/mol
3,GTGTGCACGTGAGTTC,0.08 kcal/mol
4,AAATGCACGTGTTTAG,0.12 kcal/mol
5,CGCAACACGTGTGTGG,0.06 kcal/mol
6,TATTGCACGTGGGCTA,-0.08 kcal/mol
7,CGTAGCACGTGTGATT,-0.05 kcal/mol
8,TAAGGCACGTGCCGGT,-0.1 kcal/mol
9,GAGGTCACGTGTGACG,0.27 kcal/mol
10,GCCATCACGTGAGGGG,0.27 kcal/mol
11,ATAGTCACGTGAGTCA,0.34 kcal/mol
12,ATTGTCACGTGCATAG,0 kcal/mol
13,GGGAACACGTGGGCAT,-0.01 kcal/mol
14,CTGTTCACGTGCTGTT,0.21 kcal/mol
15,GAGTGCACGTGTAGTT,0.19 kcal/mol
16,AGCGTCACGTGGCATG,0.02 kcal/mol
17,AATGGCACGTGCGGGT,-0.11 kcal/mol
18,GTTGACACGTGGGTTT,-0.06 kcal/mol
19,TGTAACACGTGTTGAA,0.07 kcal/mol
20,TGGATCACGTGAGGCT,0.37 kcal/mol
21,TTGTTCACGTGCGGTG,0.24 kcal/mol
22,TTGATCACGTGTCTGG,0.18 kcal/mol
23,GTCGTCACGTGATAAT,0.34 kcal/mol

row,Sequence,relative binding free energy
1,ATATACACGTGCGTGG,-0.01 kcal/mol
2,GCGAGCACGTGGGGGA,-0.28 kcal/mol
3,TTTGGCACGTGAGGCT,0.15 kcal/mol
4,AGGTGCACGTGGATGC,-0.08 kcal/mol
5,TAAGGCACGTGGTTTG,-0.09 kcal/mol
6,GTCCTCACGTGGGGTG,0.06 kcal/mol
7,TTGGGCACGTGAAGAC,0.31 kcal/mol
8,TGACTCACGTGTTGTT,0.25 kcal/mol
9,GATATCACGTGGTAGT,0.16 kcal/mol
10,TGATCCACGTGTGGCT,0.09 kcal/mol
11,GTGGACACGTGGATGA,0.22 kcal/mol
12,AGTCACACGTGTTTTT,0.09 kcal/mol
13,CTTTTCACGTGGGATA,0.03 kcal/mol
14,TAATACACGTGGCGGT,-0.04 kcal/mol
15,TTAAGCACGTGCGATT,-0.04 kcal/mol
16,GTATTCACGTGTGAGC,0.37 kcal/mol
17,GTTAGCACGTGGGAGT,-0.12 kcal/mol
18,TGTGTCACGTGCCTTT,0.12 kcal/mol
19,CTTATCACGTGTTTTT,0.07 kcal/mol
20,GTTGCCACGTGGAGGT,-0.04 kcal/mol
21,ATATGCACGTGTAGGG,0 kcal/mol
22,AAGGCCACGTGTGAGG,-0.15 kcal/mol
23,CGTGTCACGTGTTCTG,0.16 kcal/mol
